# Assay results published in PubChem BioAssay AID485294 (National Center for Advancing Translational Sciences (NCATS), 2010).
# The campaign covered roughly 370,000 compounds. About 150 (0.041%) were called active. The shares of active, inactive and inconclusive entries below differ from those in the screen. Calls come from the whole dose curve; as a rule, active = well fitted inhibition curve with a large enough effect; inconclusive = small, poorly fitted or top-dose-only effect; inactive = flat fitted curve, though single readings scatter. Potencies of inconclusive entries are left out as doubtful fits. Square brackets hold non-standard residues; d marks the D form. Peptide text beside a SMILES is read from it. * marks the point of attachment. ξ: configuration not given here. Boc = CC(C)(C)OC(=O)*; NHBn = c1ccc(CN*)cc1; ξV = CC(C)C(N)C(=O)O
# Molecular target: Beta-lactamase (Escherichia coli (strain K12)) (UniProt P00811)
# Experiment: qHTS Inhibitors of AmpC Beta-Lactamase (assay with detergent); note: nearly all actives have a fitted effect of over 25% in size
# Conditions: AmpC hydrolysis of nitrocefin, absorbance 480 nm, 0.01% Triton; series mostly up to 114 µM
# Method in brief: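 20 mM phosphate pH 7.0 + 0.01% (detergent screen) or 0.0001% Triton X-100; 5.3 nM AmpC reagent; cpd preinc 15 min RT; nitrocefin (800 uM stock) to start; A480 q20 s × 4 min; Activity was normalised to no-enzyme and no-compound control wells.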
# Potency is the fitted concentration of half-maximal effect; tags give direction and shape of the fitted curve.
# Sequence of UniProt P00811 (P00811 whole entry, looked up): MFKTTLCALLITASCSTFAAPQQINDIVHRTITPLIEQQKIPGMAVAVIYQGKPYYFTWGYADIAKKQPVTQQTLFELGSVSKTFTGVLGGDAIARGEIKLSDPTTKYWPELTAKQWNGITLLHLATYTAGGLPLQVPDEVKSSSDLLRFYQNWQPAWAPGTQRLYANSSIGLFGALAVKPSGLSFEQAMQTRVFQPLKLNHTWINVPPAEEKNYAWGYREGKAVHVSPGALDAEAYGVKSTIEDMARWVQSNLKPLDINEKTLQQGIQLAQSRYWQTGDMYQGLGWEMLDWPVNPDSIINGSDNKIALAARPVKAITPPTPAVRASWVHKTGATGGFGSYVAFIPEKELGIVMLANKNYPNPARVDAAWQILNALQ
row,SMILES,Potency
1,CN1C(=O)C(C)(C)c2cc(S(=O)(=O)NCCc3ccc(Cl)cc3)ccc21,"inconclusive [inhibitor, partial curve]"
2,CCOc1ccc(CNC(=O)c2ccc(NC(=O)N3CCSc4ncccc43)cc2)cc1OC,"inconclusive [inhibitor, single point]"
3,COc1cccc(Cn2c(C)c(CNCc3ccccc3Cl)c(C(=O)O)c2C)c1,inactive
4,Cc1cccc(NC(=S)NNC(=O)c2csc3c2CCCC3)c1,"inconclusive [inhibitor, full curve, poor fit]"
5,COCCN1C(=O)C(CC(=O)Nc2ccccc2)SC1=Nc1ccc(OC)cc1 (centres undefined),"inconclusive [inhibitor, single point]"
6,COc1ccc(CC(O)COS(N)(=O)=O)cc1 (centres undefined),"inconclusive [inhibitor, full curve, poor fit]"
7,Cc1ccccc1-c1nc(CS(=O)(=O)CC(=O)NCc2ccccc2)c(C)o1,"inconclusive [inhibitor, full curve, poor fit]"
8,CCc1noc(C)c1C(=O)Nc1nnc(CC(C)C)s1,"inconclusive [inhibitor, partial curve, poor fit]"
9,CC(=O)CCC(=O)NC1CCCc2c1cnn2-c1ccc(C(C)(C)C)cc1 (centres undefined),"inconclusive [inhibitor, single point]"
10,CC1(C)Oc2ccc(/C=C/C(=O)N3CCOCC3)c(O)c2C(N2CCOCC2)C1O (centres undefined),"inconclusive [inhibitor, partial curve, poor fit]"
11,COc1ccc(CCNC(=O)CN2CCC(n3nnc4cc(F)ccc43)CC2)cc1OC,"inconclusive [inhibitor, full curve]"
12,CCCN1CCN(CCCNC(=O)CN2C(=O)c3cccnc3Oc3ccc(C)cc32)CC1,inactive
13,Cc1ccc(C(C)C)c(OCCN)c1,inactive
14,CC1=C(C(=O)OCc2ccccc2)C(c2cccs2)N2C(=O)CCSC2=N1 (centres undefined),"inconclusive [inhibitor, single point]"
15,OCc1nc2c(ccc3ccccc32)[nH]1,"inconclusive [inhibitor, full curve, poor fit]"
16,Clc1ccc(-c2nc(/C=N/N3CCOCC3)c3ccccn23)cc1,"inconclusive [inhibitor, full curve, poor fit]"
17,Cc1ccc(-c2csc3ncnc(SCC(=O)c4ccc5c(c4)OCCO5)c23)cc1,inactive
18,NC(=O)C1CCN(C2CC(=O)N(c3ccc(F)c(Cl)c3)C2=O)CC1 (centres undefined),"inconclusive [inhibitor, single point]"
19,Cc1c(N2C(=O)/C(=C/c3ccccc3)SC2=S)c(=O)n(-c2ccccc2)n1C,inactive
20,COc1cc2c(cc1O)C(Cc1ccc(O)cc1)[N+](C)([O-])CC2 (centres undefined),inactive
21,C#CCN1C(=O)C(O)(CC(=O)c2ccc(OC)c(OC)c2)c2ccccc21 (centres undefined),"inconclusive [inhibitor, single point]"
22,CC(C)OC(=O)c1ccccc1C(=O)c1ccc(N)c([N+](=O)[O-])c1,inactive
23,C=CCNc1nc(C(=O)OCC(=O)Nc2ccc(S(N)(=O)=O)cc2)cs1,"inconclusive [inhibitor, partial curve, poor fit]"

row,SMILES,Potency
1,Cc1nc(C)c(-c2csc(NCCc3ccccc3)n2)s1,"inconclusive [inhibitor, single point]"
2,COc1ccc(-n2c(SCC#N)nnc2-c2ccc(NS(=O)(=O)c3ccc(C)cc3)cc2)cc1,"inconclusive [inhibitor, full curve]"
3,CC(OC(=O)CN1C(=O)c2ccccc2C1=O)C(=O)c1ccccc1 (centres undefined),"inconclusive [inhibitor, full curve, poor fit]"
4,COc1ccccc1OCC(=O)NNC(=O)Nc1ccc(Cl)cc1,inactive
5,Cc1ccc2cc(CNC(C)(C)C)c(=O)[nH]c2c1,"inconclusive [inhibitor, full curve, poor fit]"
6,Cc1cc(/C=N/n2cnnc2)c(C)n1-c1ccc(C(=O)O)cc1,"inconclusive [inhibitor, full curve, poor fit]"
7,CN(C)c1ccc(C(=O)N/N=C/c2ccccn2)cc1,"inconclusive [inhibitor, full curve, poor fit]"
8,COc1ccc([C@H]2CC(=O)C=C(c3ccnc4ccc(Cl)cc34)C2)cc1,inactive
9,O=C(Cn1cnc2cc([N+](=O)[O-])ccc2c1=O)NCc1ccccc1,"inconclusive [inhibitor, full curve, poor fit]"
10,CN1CCN(C(=O)C2CCN(S(=O)(=O)c3cnc[nH]3)CC2)CC1,"inconclusive [inhibitor, full curve, poor fit]"
11,Cc1cc(NC(=O)c2cnn3cccnc23)nn1CC(=O)Nc1cccnc1,"inconclusive [inhibitor, single point]"
12,C#CCN1C(=O)C2(C(C#N)=C(N)OC(C)=C2C(=O)OCc2ccccc2)c2ccccc21 (centres undefined),"inconclusive [inhibitor, single point]"
13,O=C(NNC(=O)c1cc(-c2ccncc2)nc2ccccc12)c1cccc(Cl)c1,"inconclusive [inhibitor, full curve, poor fit]"
14,Cc1cnc(NC(=O)C2CC=CCC2)s1 (centres undefined),inactive
15,CC[C@@]12C(=O)N(c3ccccc3)C(=O)N1[C@H](c1ccc(OC)cc1)[C@@H]1C(=O)N(C(C)(C)C)C(=O)[C@@H]12,"inconclusive [inhibitor, single point]"
16,CCCn1c(C(CO)Nc2nc(-c3cccc(Br)c3)cs2)nc2ccccc21 (centres undefined),"inconclusive [inhibitor, partial curve]"
17,Cc1sc2nc(-c3ccccc3)[nH]c(=O)c2c1-c1ccccc1,inactive
18,CSCCC(NC(=O)c1ccc([N+](=O)[O-])cc1Cl)C(=O)OCC(=O)N1CCN(C(C)=O)CC1 (centres undefined),"inconclusive [inhibitor, full curve, poor fit]"
19,CC(C)(C)c1cc(C(C)(C)C)c2oc(=O)c(-c3nc4ccc(C(=O)O)cc4[nH]3)cc2c1,"inconclusive [inhibitor, full curve, poor fit]"
20,O=c1oc2ccccc2cc1-c1ccc(O)cc1,inactive
21,COc1ccc(N(CC(=O)N2CCN(Cc3ccccc3)CC2)S(C)(=O)=O)cc1OC,"inconclusive [inhibitor, partial curve, poor fit]"
22,COc1ccc(C2(C(=O)Nc3ccc(C(=O)N4CCOCC4)cc3)CCOCC2)cc1,"inconclusive [inhibitor, partial curve]"
23,CCCNC(=O)[C@H]1N2C(=O)c3c(ccc(OC)c3OC)C2SC1(C)C (some centres undefined),"inconclusive [inhibitor, full curve, poor fit]"

row,SMILES,Potency
1,Cc1cc(-n2cnnn2)cc(C)c1S(=O)(=O)NCCOc1ccccc1,"inconclusive [inhibitor, full curve, poor fit]"
2,CCN1C(=O)CSC1=Nc1ccc(OC)cc1,"inconclusive [inhibitor, full curve]"
3,COc1ccc(-c2nnc(SCc3ccccc3F)o2)cc1,inactive
4,Cn1c(CO)cnc1SCC(=O)c1ccc(Cl)cc1,"inconclusive [inhibitor, full curve, poor fit]"
5,Cc1cc(C)c2c(=O)[nH]cnc2n1,"inconclusive [inhibitor, full curve, poor fit]"
6,COc1ccc(CCOC(=O)c2cccc(NC(C)=O)c2)cc1,inactive
7,C=C(Cl)CSC(=S)N(CC)CC,inactive
8,Cc1ccc(S(=O)(=O)N2CCC(C(=O)N[C@@H](C)C(=O)Nc3ccc4c(c3)OCO4)CC2)cc1,active: 35.5 µM
9,Cc1cccc(-c2sc(Nc3ccccc3)n[n+]2-c2ccccc2)c1,inactive
10,O=c1[nH]nc(CNc2ccc(O)cc2)c2ccccc12,inactive
11,CC(C)C(NC(=O)CNC(=O)OC(C)(C)C)C(=O)NCc1ccccc1 (stereo not drawn) (Boc-Gly-[ξV]-NHBn),"inconclusive [inhibitor, full curve]"
12,NC1=CC(=O)c2cccc3cccc1c23,"inconclusive [inhibitor, partial curve, poor fit]"
13,CS(=O)(=O)c1ccc(C(=O)N2CCN(Cc3ccccc3)CC2)cc1,inactive
14,Cc1[nH]c(=O)[nH]c(=O)c1S(=O)(=O)N1CCCC(C(=O)N2CCN(c3ccccc3Cl)CC2)C1 (centres undefined),"inconclusive [inhibitor, full curve, poor fit]"
15,CCOc1ccc(C(=O)NCC(c2ccc3c(c2)OCO3)N2CCN(c3ccc(F)cc3)CC2)cc1 (centres undefined),inactive
16,COc1cc(-c2nnc(CSc3nnc(Nc4ccc(Oc5ccccc5)cc4)s3)o2)cc(OC)c1OC,inactive
17,CC(=O)Nc1ccc(NS(=O)(=O)c2ccc3[nH]c4c(c3c2)CCCCC4)cc1,inactive
18,Clc1ccc(N2CCNCC2)nn1,"inconclusive [inhibitor, full curve, poor fit]"
19,CCCC(CCC)C(=O)Nc1cccc(-c2nc3cccnc3s2)c1,inactive
20,c1ccc(-c2[nH]c(-c3ccccc3)[n+](CC3CO3)c2-c2ccccc2)cc1 (centres undefined),inactive
21,CC(C)(C)C1CCC(OC(=O)C[N+]2(C)CCCCC2)CC1 (centres undefined),inactive
22,CCn1c(SCC(=O)c2cc(C)n(CC3CCCO3)c2C)nc2ccccc21 (centres undefined),"inconclusive [inhibitor, full curve, poor fit]"
23,CCOC(=O)c1c(NC(=O)CC)sc(C(C)=O)c1C,"inconclusive [inhibitor, full curve, poor fit]"
